# From PubChem BioAssay AID652104 (National Center for Advancing Translational Sciences (NCATS), 2013)
# The whole screen tested about 410,000 compounds, of which about 7,200 (1.8%) were called active. The shares of active, inactive and inconclusive entries below differ from those in the screen. Calls follow the shape of the dose curve; as a rule, active = well fitted activation curve with a large enough effect; inconclusive = small, poorly fitted or top-dose-only effect, or another doubt; inactive = no such curve, though single readings can be large or run the other way. No potency is given beside an inconclusive call; the fits are too rough.
# Test: qHTS of TDP-43 Inhibitors; also: nearly all actives have a fitted effect of over 50% in size; as to growth rescue (activation): % of control where 0% means no effect
# Settings: TDP-43 expressing yeast growth rescue, BacTiter-Glo, 24 h; growth rescue (activation): at 46.1 µM (top of the series) unless noted
# Outline: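 Growth rescue of TDP-43-toxic yeast measured as ATP luminescence (BacTiter-Glo). Cells grown to mid-log in raffinose, induced in galactose at OD600=0.02, exposed to compound 24 hr at 30 deg C.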
# Potency is read from the fitted curve at half-maximal effect; tags tell the direction and shape of the fitted curve.
SMILES,Potency,growth rescue (activation)
Cc1ccc(C(=O)OCC(=O)NC(C)C2CC3CCC2C3)cc1N (stereo unspecified),"inconclusive [activator, partial curve]",–
COc1ccc2[nH]c3c(c2c1)CCN1C(=O)N([C@@H](C)C(=O)NCCc2ccc(F)cc2)C(=O)[C@]31C,"inconclusive [activator, single point]",–
CC(CNC(=O)c1ccc(Cn2c(=O)c3cccn3c3cccnc32)cc1)c1ccccc1 (stereo unspecified),"inconclusive [activator, full curve]",–
O=C(Nc1ccc([N+](=O)[O-])cc1)N1CCc2ccccc2C1,"inconclusive [activator, single point]",–
Clc1ccc(-c2noc3ncnc(NC4CCCCC4)c23)cc1,active: 35.5 µM,–
COc1ccc(OC)c(C2CC(=O)c3c([nH]c(C(=O)OCc4ccc(C)cc4)c3C)C2)c1 (stereo unspecified),–,inactive: 0.87%
O=C(Oc1ccc2c(=O)c(Cl)coc2c1)c1cccnc1,–,inactive: -27.1%
C#CCOCCOCCOCCNc1nc(N2CCN(C(=O)CCCCCCCCCCNC(=O)[C@H]([C@@H](C)CC)n3cc(CCCCCN)nn3)CC2)nc(N2CCN(C(=O)CCCCCCCCCCNC(=O)[C@@H]([C@H](C)O)n3cc(C)nn3)CC2)n1,"inconclusive [activator, single point]",–
Cc1ccc2cccc(S(=O)(=O)N3CCN(c4ccccc4F)CC3)c2n1,"inconclusive [activator, single point]",–
CCNc1nc(NCC)nc(SCCOC(=O)c2ccccc2)n1,"inconclusive [activator, single point]",–
COc1ccc(-c2cc3nc(C)c(CCC(=O)NCCc4ccc(Cl)cc4)c(C)n3n2)c(OC)c1,–,inactive: -1.31%
Cn1nccc1/C=C(/C#N)S(=O)(=O)c1ccccc1,"inconclusive [activator, single point]",–
O=C(CN1C(=O)COc2ccc(S(=O)(=O)N3CCCCCC3)cc21)N1CCN(c2ccc(F)cc2)CC1,–,inactive: -3.12%
Cc1cn(C)c(CC(=O)Nc2cccc(C#N)c2)c1C(=O)O,–,inactive: 7.56%
COC(=O)c1ccc2nc(-c3cccc(Cl)c3)c(Cc3ccccc3)n2c1,"inconclusive [activator, partial curve]",–
Cc1ccc2c(CN(C)Cc3cccc(Cl)c3)cc(=O)oc2c1C,"inconclusive [activator, partial curve]",–
COc1ccc(C(=O)NCc2nnc(SCC(=O)N3CCCC3)o2)cc1OC,"inconclusive [activator, full curve, poor fit]",–
Cc1cc(Cl)ccc1OC(C)C(=O)Nc1ccccc1N1CCOCC1 (stereo unspecified),"inconclusive [activator, single point]",–
Brc1cc2c(cc1Br)OCCOCCOCCOCCO2,"inconclusive [activator, single point]",–
O=C(COC(=O)c1cc(=O)[nH]c(=O)[nH]1)Nc1cccc(S(=O)(=O)N2CCOCC2)c1,–,inactive: 0.588%
CCOC(=O)c1c(-c2ccccc2)oc2ccc(OCC(=O)NN)cc12,"inconclusive [activator, partial curve, poor fit]",–
COc1ccc2c(COC(=O)[C@H](C)NS(=O)(=O)c3ccccc3F)cc(=O)oc2c1,"inconclusive [activator, partial curve]",–
CC1(C)NC(=O)N(CCCCOc2ccc(Cl)cc2)C1=O,–,inactive: -13.4%
Nc1ccc(C(=O)N/N=C/c2cccc(Oc3ccccc3)c2)cc1,active: 12.6 µM,–

SMILES,Potency,growth rescue (activation)
O=C(CCn1c(=O)c2ccccc2n(Cc2cccc(F)c2)c1=O)NCc1ccc2c(c1)OCO2,"inconclusive [activator, full curve, poor fit]",–
CC1CC(C)CN(C(=O)c2cccc(S(=O)(=O)N3c4ccccc4CC3C)c2)C1 (stereo unspecified),"inconclusive [activator, single point]",–
O=[N+]([O-])c1cccc(-c2c(-c3ccccc3)ncc3cc(F)ccc23)c1,active: 28.2 µM,–
CC(C)Oc1ccc(CNC(=O)c2ccc3c(c2)nc2n3CCOC2)cc1,–,inactive: 20.4%
Cc1cc(C)c2c(CC(=O)O)coc2c1,active: 12.6 µM,–
O=c1c(C=NCc2ccccc2)c(NCc2ccccc2)nc2ccccn12,"inconclusive [activator, partial curve]",–
COc1ccc(Cl)cc1C(=O)Nc1ccccc1N1CCCCC1,"inconclusive [activator, partial curve]",–
O=C(CCn1nc(-c2ccccc2)c2ccccc2c1=O)N1CCN(c2ccccc2)CC1,"inconclusive [activator, single point]",–
O=S(=O)(c1ccc(SCc2cccc(Cl)c2)nc1)N1CCCC1,"inconclusive [activator, partial curve]",–
COc1cccc(NC(=S)NC(=O)c2cncc(Br)c2)c1,active: 12.6 µM,–
O=C(CCS(=O)(=O)c1nc(-c2ccc3c(c2)OCO3)cc(C(F)(F)F)n1)Nc1ccc(Br)cc1,"inconclusive [activator, partial curve]",–
Cc1ccc2nc(N3C(=O)C(O)=C(C(=O)c4ccc(C)o4)C3c3ccc(O)cc3)sc2c1 (stereo unspecified),"inconclusive [activator, full curve]",–
CCOC(=O)c1cnc2c(ccc3ccccc32)c1Nc1ccc(N(C)C)cc1,–,inactive: 0%
CSc1nc2nccc(-c3ccc(-c4ccccc4)cc3)n2n1,–,inactive: 12.4%
CC(C)(C)c1ccccc1NC(=S)NCc1ccccc1,"inconclusive [activator, partial curve]",–
CCCCNc1c(-c2ccc(SC3CCCCC3)cc2)nc2cnccn12,active: 22.4 µM,–
CC(C)N(Cc1ccccc1)C(=O)c1nc(-c2ccc(Cl)cc2)n2c1CCCCC2,"inconclusive [activator, partial curve]",–
CCOC(=O)C[C@H]1c2cc(C(F)(F)F)ccc2S(=O)(=O)N1Cc1ccccc1,"inconclusive [activator, partial curve]",–
COC(=O)NNC(=O)c1ccc(C)c(Br)c1,active: 20 µM,–
CN(Cc1ccccc1)C(=O)c1oc(=O)c2ccccc2c1-c1ccccc1,active: 14.1 µM,–
Cc1ccccc1NC(=S)NNC(=O)c1cccnc1,"inconclusive [activator, partial curve]",–
CCC(=O)NC(=S)Nc1ccc(NC(=O)c2ccco2)c(OC)c1,"inconclusive [activator, partial curve, poor fit]",–
Cc1cccn2c(=O)c3cc(C(=O)NCC(C)C)sc3nc12,"inconclusive [activator, single point]",–
COc1ccc(N2CCN(C(CNS(=O)(=O)c3ccc(OC)c(C)c3)c3ccco3)CC2)cc1 (stereo unspecified),"inconclusive [activator, full curve, poor fit]",–

SMILES,Potency,growth rescue (activation)
O=C(CNC(=O)c1ccc(Br)o1)NNC(=O)c1ccccc1F,"inconclusive [activator, partial curve]",–
COC(=O)c1ccc(C(=O)OC)c(NC(=S)N2CC(C)CC(C)C2)c1 (stereo unspecified),"inconclusive [activator, single point]",–
O=c1cc(-c2ccc(C3CCCCC3)cc2)[nH][nH]1,active: 17.8 µM,–
O=C1NCCCN1C1OC(CO)C(O)C1O (stereo unspecified),"inconclusive [activator, partial curve, poor fit]",–
Clc1ccc(Oc2nnnn2-c2ccccc2)cc1,active: 11.2 µM,–
Cc1cc(NC(=O)N2CCC(CN3CCCCCC3)CC2)ccc1Br,–,inactive: 9.78%
C=CCSc1nc2c(cnn2-c2ccccc2)c(=O)n1N,"inconclusive [activator, partial curve]",–
CCN(Cc1ccccc1)C(=O)c1oc2ccc(S(=O)(=O)N3CCOCC3)cc2c1C,–,inactive: 15.8%
COc1ccc(S(=O)(=O)Oc2ccc3cccc(N)c3c2)cc1,active: 15.8 µM,–
O=C(c1cnn(-c2ccccc2)c1)c1cc(Br)ccc1O,–,inactive: 5.43%
COc1ccccc1CNC(=O)COC(=O)c1ccc([N+](=O)[O-])o1,"inconclusive [activator, single point]",–
O=C(CC(=O)c1ccccc1)c1ccccc1,–,inactive: -17.7%
Oc1cccnc1SCc1ccccc1,"inconclusive [activator, single point]",–
COc1cccc(C(=O)Nc2ccc3nc(SCC(=O)N(C)c4ccccc4)sc3c2)c1,–,inactive: 8.07%
Cc1cc(C)c(COc2ccc(/C=N/n3c(C)n[nH]c3=S)cc2)c(C)c1,active: 20 µM,–
O=C(Nc1ccnc(-c2cccnc2)n1)c1ccccc1Cl,"inconclusive [activator, full curve, poor fit]",–
O=S(=O)(c1ccc(F)c(F)c1)N1CCCc2ccccc21,"inconclusive [activator, partial curve]",–
FC(F)(F)c1cccc(N2CCN(c3ncnc4c3nc3n4CCCC3)CC2)c1,active: 15.8 µM,–
N#Cc1ccc(CN(Nc2ccccc2)c2ccccc2)cc1,"inconclusive [activator, partial curve]",–
O=C(NCCSc1c[nH]c2ccccc12)c1ccc(Br)o1,active: 17.8 µM,–
Cc1ccc(S(=O)(=O)N2CCOC23CCN(C(=O)c2cc(Cl)ccc2Cl)CC3)cc1,"inconclusive [activator, single point]",–
COc1ccc2nc(C)cc(C(=O)O)c2c1,–,inactive: 5.2%
C[C@H](CO)N1C[C@H](C)[C@@H](CN(C)Cc2ccccc2F)Oc2ncc(Br)cc2C1=O,"inconclusive [activator, single point]",–
